{
  "source": "patent US11618753B2",
  "about": "(priority 2018, dated 2023)",
  "data": [
    {"test_system": "MLKL phosphorylation, HT29-L23 human colorectal adenocarcinoma cells", "assay": "cells", "settings": "read-out: pMLKL HCS Cell Assay (IC50, uM)", "units": {"IC50": "µM"}, "values": [
      {"smiles": "Cc1cc(F)c(-c2cc(C(F)(F)F)c3c(N)ncnn23)cc1C(=O)N[C@@H]1CN(C(=O)c2c(F)cc(F)cc2F)C[C@@H]1F", "note": "[Example 823, 5-[4-amino-5-(trifluoromethyl)pyrrolo[2,1-f][1,2,4]triazin-7-yl]-4-fluoro-N-[(3R,4S)-4-fluoro-1-(2,4,6-trifluorobenzoyl)pyrrolidin-3-yl]-2-methylbenzamide]", "IC50": 0.0086},
      {"smiles": "COc1ncc(-c2cc(C(F)(F)F)c3c(N)ncnn23)cc1C(=O)N[C@@H]1CN(C(=O)[C@H](O)C(F)(F)F)C[C@@H]1F", "note": "[Example 318, 5-[4-amino-5-(trifluoromethyl)pyrrolo[2,1-f][1,2,4]triazin-7-yl]-N-[(3R,4S)-4-fluoro-1-[(2S)-3,3,3-trifluoro-2-hydroxypropanoyl]pyrrolidin-3-yl]-2-methoxy-pyridine-3-carboxamide]", "IC50": 0.124},
      {"smiles": "CCC(O)(C(=O)N1C[C@H](F)[C@H](NC(=O)c2cc(-c3cc(CN4CCC(F)(F)CC4)c4c(N)ncnn34)ccc2C)C1)C(F)(F)F", "note": "(stereo partly drawn) [Example 1644, 5-{4-amino-5-[(4,4-difluoropiperidin-1-yl)methyl]pyrrolo[2,1-f][1,2,4]triazin-7-yl}-N-[(3R,4S)-4-fluoro-1-[2-hydroxy-2-(trifluoromethyl)butanoyl]pyrrolidin-3-yl]-2-methylbenzamide]", "IC50": 0.00092},
      {"smiles": "CCCC(N)(C(=O)N1C[C@H](F)[C@H](NC(=O)c2cc(-c3cc(C(F)(F)F)c4c(N)ncnn34)cnc2OC)C1)C(F)(F)F", "note": "(stereo partly drawn) [Example 1668, N-((3R,4S)-1-(2-amino-2-(trifluoromethyl)pentanoyl)-4-fluoropyrrolidin-3-yl)-5-(4-amino-5-(trifluoromethyl)pyrrolo[2,1-f][1,2,4]triazin-7-yl)-2-methoxynicotinamide]", "IC50": 0.0097},
      {"smiles": "Cc1ncc(-c2cc(C(F)(F)F)c3c(N)ncnn23)cc1C(=O)Nc1cn(C(C)c2ccc(F)cc2)cn1", "note": "(stereo not shown) [Example 1773, 5-(4-amino-5-(trifluoromethyl)pyrrolo[2,1-f][1,2,4]triazin-7-yl)-N-(1-(1-(4-fluorophenyl)ethyl)-1H-imidazol-4-yl)-2-methylnicotinamide]", "IC50": 0.00085},
      {"smiles": "Cc1ccc(-c2cc(CN3CCC(F)(F)CC3)c3c(N)ncnn23)cc1C(=O)N[C@@H]1CN(C(=O)C(C)(C)F)C[C@@H]1F", "note": "[Example 1643, 5-{4-amino-5-[(4,4-difluoropiperidin-1-yl)methyl]pyrrolo[2,1-f][1,2,4]triazin-7-yl}-N-[(3R,4S)-4-fluoro-1-(2-fluoro-2-methylpropanoyl)pyrrolidin-3-yl]-2-methylbenzamide]", "IC50": 0.0014},
      {"smiles": "CCOc1ccc(-c2cc(C(F)(F)F)c3c(N)ncnn23)cc1C(=O)N[C@@H]1CN(C(=O)CC(C)(O)C(F)(F)F)C[C@@H]1F", "note": "(stereo partly drawn) [Example 1098, 5-[4-amino-5-(trifluoromethyl)pyrrolo[2,1-f][1,2,4]triazin-7-yl]-2-ethoxy-N-[(3R,4S)-4-fluoro-1-(4,4,4-trifluoro-3-hydroxy-3-methylbutanoyl)pyrrolidin-3-yl]benzamide]", "IC50": 0.026},
      {"smiles": "COc1ncc(-c2cc(C(F)(F)F)c3c(N)ncnn23)cc1C(=O)NC1CN(C(C)c2ccccc2F)C[C@@H]1F", "note": "(single isomer, unassigned) [Example 448]", "IC50": 0.0067},
      {"smiles": "COc1ncc(-c2c(F)cc3c(N)ncnn23)cc1C(=O)Nc1cnn(Cc2ccccc2)c1", "note": "[Example 62, 5-(4-amino-6-fluoropyrrolo[2,1-f][1,2,4]triazin-7-yl)-N-(1-benzyl-1H-pyrazol-4-yl)-2-methoxynicotinamide]", "IC50": 0.037},
      {"smiles": "C#CCOC(=O)N1C[C@H](F)[C@H](NC(=O)c2cc(-c3cc(C(F)(F)F)c4c(N)ncnn34)cnc2OC)C1", "note": "[Example 1435, prop-2-yn-1-yl (3R,4S)-3-{5-[4-amino-5-(trifluoromethyl)pyrrolo[2,1-f][1,2,4]triazin-7-yl]-2-methoxypyridine-3-amido}-4-fluoropyrrolidine-1-carboxylate]", "IC50": 0.0076},
      {"smiles": "Cc1cc(C)c(-c2cc(C(F)(F)F)c3c(N)ncnn23)cc1C(=O)N[C@@H]1CN(C(=O)C2CC(F)(F)C2)C[C@@H]1F", "note": "[Example 537, 5-[4-amino-5-(trifluoromethyl)pyrrolo[2,1-f][1,2,4]triazin-7-yl]-N-[(3R,4S)-1-(3,3-difluorocyclobutanecarbonyl)-4-fluoropyrrolidin-3-yl]-2,4-dimethylbenzamide]", "IC50": 0.021},
      {"smiles": "COc1ncc(-c2cc(C(F)(F)F)c3c(N)ncnn23)cc1C(=O)NC1CN(Cc2ccc(Cl)cc2)CC1F", "note": "(racemic) [Example 224, 5-[4-amino-5-(trifluoromethyl)pyrrolo[2,1-f][1,2,4]triazin-7-yl]-N-{1-[(4-chlorophenyl)methyl]-4-fluoropyrrolidin-3-yl}-2-methoxypyridine-3-carboxamide]", "IC50": 0.0089},
      {"smiles": "CCOc1ccc(-c2cc(C(F)(F)F)c3c(N)ncnn23)cc1C(=O)N[C@@H]1CN(C(=O)C(O)(CC)C(F)(F)F)C[C@@H]1F", "note": "(stereo partly drawn) [Example 1109, 5-[4-amino-5-(trifluoromethyl)pyrrolo[2,1-f][1,2,4]triazin-7-yl]-2-ethoxy-N-[(3R,4S)-4-fluoro-1-[2-hydroxy-2-(trifluoromethyl)butanoyl]pyrrolidin-3-yl]benzamide]", "IC50": 0.019},
      {"smiles": "Cc1ccc(-c2cc(C(F)(F)F)c3c(N)ncnn23)cc1C(=O)N[C@@H]1CN(C(=O)CC(F)(F)F)C[C@@H]1F", "note": "[Example 985, 5-[4-amino-5-(trifluoromethyl)pyrrolo[2,1-f][1,2,4]triazin-7-yl]-N-[(3R,4S)-4-fluoro-1-(3,3,3-trifluoropropanoyl)pyrrolidin-3-yl]-2-methylbenzamide]", "IC50": 0.0067},
      {"smiles": "Nc1ncnn2c(-c3ccc(OC(F)(F)F)c(C(=O)N[C@@H]4CN(C(=O)C5CCC(F)(F)CC5)C[C@@H]4F)c3)cc(C(F)(F)F)c12", "note": "[Example 1057, 5-[4-amino-5-(trifluoromethyl)pyrrolo[2,1-f][1,2,4]triazin-7-yl]-N-[(3R,4S)-1-(4,4-difluorocyclohexanecarbonyl)-4-fluoropyrrolidin-3-yl]-2-(trifluoromethoxy)benzamide]", "IC50": 0.109},
      {"smiles": "Cc1c(F)cc(-c2cc(C(F)(F)F)c3c(N)ncnn23)cc1C(=O)N[C@@H]1CN(C(=O)C(C)(C)O)C[C@@H]1F", "note": "[Example 665, 5-[4-amino-5-(trifluoromethyl)pyrrolo[2,1-f][1,2,4]triazin-7-yl]-3-fluoro-N-[(3R,4S)-4-fluoro-1-(2-hydroxy-2-methylpropanoyl)pyrrolidin-3-yl]-2-methylbenzamide]", "IC50": 0.025},
      {"smiles": "COc1ncc(-c2cc(C(F)(F)F)c3c(N)ncnn23)cc1C(=O)N[C@@H]1CN(C(=O)c2cccc(F)c2)C[C@@H]1F", "note": "[Example 342, 5-[4-amino-5-(trifluoromethyl)pyrrolo[2,1-f][1,2,4]triazin-7-yl]-N-[(3R,4S)-4-fluoro-1-(3-fluorobenzoyl)pyrrolidin-3-yl]-2-methoxypyridine-3-carboxamide]", "IC50": 0.024},
      {"smiles": "COc1ncc(-c2cc(C(F)(F)F)c3c(N)ncnn23)cc1C(=O)N[C@@H]1CN(S(=O)(=O)C(C)C)C[C@@H]1F", "note": "[Example 1460, 5-(4-Amino-5-(trifluoromethyl)pyrrolo[2,1-f][1,2,4]triazin-7-yl)-N-((3R,4S)-4-fluoro-1-(isopropylsulfonyl)pyrrolidin-3-yl)-2-methoxynicotinamide]", "IC50": 0.042},
      {"smiles": "COc1ncc(-c2cc(C(F)(F)F)c3c(N)ncnn23)cc1C(=O)NC1CC(=O)N(Cc2ccccc2)C1", "note": "(stereo not shown) [Example 137, 5-[4-amino-5-(trifluoromethyl)pyrrolo[2,1-f][1,2,4]triazin-7-yl]-N-(1-benzyl-5-oxopyrrolidin-3-yl)-2-methoxypyridine-3-carboxamide]", "IC50": 0.453},
      {"smiles": "Nc1ncnn2c(-c3cc(C(=O)N[C@@H]4CN(C(=O)C5CC(F)(F)C5)C[C@@H]4F)c(Cl)cc3F)cc(CN3CC(F)(F)C3)c12", "note": "[Example 1309, 5-{4-amino-5-[(3,3-difluoroazetidin-1-yl)methyl]pyrrolo[2,1-f][1,2,4]-triazin-7-yl}-2-chloro-N-[(3R,4S)-1-(3,3-difluorocyclobutanecarbonyl)-4-fluoropyrrolidin-3-yl]-4-fluoro-benzamide]", "IC50": 0.00062},
      {"smiles": "COc1ncc(-c2cc(CN3CCOCC3)c3c(N)ncnn23)cc1C(=O)N[C@@H]1CN(CC(O)C(F)(F)F)C[C@@H]1F", "note": "(stereo partly drawn) [Example 481, 5-{4-amino-5-[(morpholin-4-yl)methyl]pyrrolo[2,1-f][1,2,4]triazin-7-yl}-N-[(3R,4S)-4-fluoro-1-(3,3,3-trifluoro-2-hydroxypropyl)pyrrolidin-3-yl]-2-methoxypyridine-3-carboxamide]", "IC50": 0.106},
      {"smiles": "COc1ncc(-c2cc(CN3CCC(C(F)(F)F)CC3)c3c(N)ncnn23)cc1C(=O)N[C@@H]1CN(C(=O)C2CC2(F)F)C[C@@H]1F", "note": "(stereo partly drawn) [Example 1627, 5-(4-amino-5-{[4-(trifluoromethyl)piperidin-1-yl]methyl}pyrrolo[2,1-f][1,2,4]triazin-7-yl)-N-[(3R,4S)-1-(2,2-difluorocyclopropanecarbonyl)-4-fluoropyrrolidin-3-yl]-2-methoxypyridine-3-carboxamide]", "IC50": 0.0086},
      {"smiles": "C[C@@](O)(C(=O)N1C[C@H](F)[C@H](NC(=O)c2cc(F)cc(-c3cc(C(F)(F)F)c4c(N)ncnn34)c2)C1)C(F)(F)F", "note": "[Example 1314, 3-[4-amino-5-(trifluoromethyl)pyrrolo-[2,1-f][1,2,4]triazin-7-yl]-5-fluoro-N-[(3R,4S)-4-fluoro-1-[(2R)-3,3,3-trifluoro-2-hydroxy-2-methyl-propanoyl]pyrrolidin-3-yl]benzamide]", "IC50": 0.011},
      {"smiles": "COc1ncc(-c2cc(C(F)(F)F)c3c(NC(C)=O)ncnn23)cc1C(=O)N[C@@H]1CN(C(=O)C2CC(F)(F)C2)C[C@@H]1F", "note": "[Example 1339, N-[(3R,4S)-1-(3,3-difluorocyclobutanecarbonyl)-4-fluoropyrrolidin-3-yl]-5-[4-acetamido-5-(trifluoromethyl)pyrrolo[2,1-f][1,2,4]triazin-7-yl]-2-methoxypyridine-3-carboxamide]", "IC50": 0.039},
      {"smiles": "COc1ncc(-c2cc(C(F)(F)F)c3c(N)ncnn23)cc1C(=O)N[C@@H]1CN(C(C)c2ncccc2F)C[C@@H]1F", "note": "(stereo partly drawn) [Example 450, 5-[4-amino-5-(trifluoromethyl)pyrrolo[2,1-f][1,2,4]triazin-7-yl]-N-[(3R,4S)-4-fluoro-1-[1-(3-fluoropyridin-2-yl)ethyl]pyrrolidin-3-yl]-2-methoxypyridine-3-carboxamide]", "IC50": 0.045}
    ]}
  ]
}
